These results are taken from ChEMBL document CHEMBL4888484, “Replenishing the malaria drug discovery pipeline: Screening and hit evaluation of the MMV Hit Generation Library 1 (HGL1) against asexual blood stage Plasmodium falciparum ,using a nano luciferase reporter read-out” (2022).

Hit rate of the full screen: of about 150,000 compounds, about 540 (0.36%) showed an effect of 50% or more. The list shows a part of the results.

The test system of this assay is Plasmodium falciparum. Nature of the assay: Primary screen in NF54 nanoGlo assay, in single point, at 2uM, 72h; a lower Z score goes with more inhibition. To be noted: timepoint 72 hour. Type of assay: functional, Erythrocyte.
For orientation: % Inhibition means the change of the read-out against control, counted positive when it falls. With `Cc1nccn1-c1ncc(NC(=O)Nc2ccccc2Cl)cn1`, the “% Inhibition” value is on record as -14% and the Z score amounted to 2.61.

For `COc1ccnc(N2CCN[C@H](C(=O)N3CCCC3)C2)n1`, the “% Inhibition” value is given as -3% and the Z score amounted to 0.35.

In the case of `COc1cc(-c2nc(C(=O)N3CCCC3)cs2)ccc1OCc1ccc(F)c(F)c1`, the “% Inhibition” value is listed as -16% and the Z score is 1.88.

For `Cc1nccnc1[C@H](C)NCc1cccc(Br)c1`, the “% Inhibition” value was -8% and the Z score came out at 0.76.

In the case of `CCCc1ccc(-c2ccc(F)c(N3C(=O)c4c(Cl)c(Cl)c(Cl)c(Cl)c4C3=O)c2)nc1`, the “% Inhibition” value is reported as -5% and the Z score is on record as 0.7.

`c1ccc(N2CCN(c3nc(-c4nc([C@H]5CCOC5)no4)cs3)CC2)cc1`: the “% Inhibition” value was -5% and the Z score is 0.69.

Consider `CN(C)C[C@@H]1CN(Cc2cccnc2)C[C@H]1NS(=O)(=O)c1ccccc1F`, for which the “% Inhibition” value is given as -17% and the Z score is 2.7.

Regarding `CCNc1ncc(Br)cc1C#N`, the “% Inhibition” value was -17% and the Z score was found to be 1.87.

Regarding `CC(CS(=O)(=O)N(C)C)NC1CCCc2c1cnn2C` (stereo unspecified), the “% Inhibition” value is listed as -9% and the Z score was 1.1.

Regarding `COc1ccc(CCc2nc(NC(=O)[C@H]3CC(=O)N(c4ccccc4)C3)n[nH]2)cc1`, the “% Inhibition” value is on record as -11% and the Z score came out at 1.33.

For the compound `CC(C)NC(=O)CN(C)CCCN1CCC(F)(F)CC1`, the “% Inhibition” value is reported as -3% and the Z score was found to be 0.41.

Regarding `Cc1cn(C)nc1C(=O)NC1CC2(COC(C)(C)C2)C1` (stereo unspecified), the “% Inhibition” value was -14% and the Z score worked out at 2.13.

On to `CCOC(=O)C1CCN(c2ccc(-c3nc(-c4ccccc4C)no3)nn2)CC1`, for which the “% Inhibition” value is -7% and the Z score is 0.8.

Turning to `CC(C)[C@H]1OCC[C@@H]1CNc1ccc(S(C)(=O)=O)cc1`, the “% Inhibition” value is given as -8% and the Z score came to 1.07.

As for `C[C@@H](C(=O)Nc1nccs1)N1CCCC1`, the “% Inhibition” value was -4% and the Z score is 0.56.

As to `CC(C)c1nc(CNC(=O)c2ccc(NCCN3CCNC3=O)nc2)no1`, the “% Inhibition” value is -19% and the Z score was 1.78.

Take `CN(C)C[C@@H](c1ccccc1)N(C)C(=O)c1ccc(-n2cnnc2)nc1`: the “% Inhibition” value is given as -15% and the Z score amounted to 1.6.

As for `CCCOC(=O)N1CCCn2nc(-c3nc4cc(OC)ccc4[nH]3)cc2C1`, the “% Inhibition” value was -9% and the Z score was 1.32.

On to `Cc1cc(NC(=O)C2(CN(C)C)CCCCC2)ccc1N(C)C`, for which the “% Inhibition” value is -1% and the Z score amounted to 0.2.

For `CCC(CC)(CNC1CCC2(CCOCC2)CC1)C(=O)O`, the “% Inhibition” value is -5% and the Z score amounted to 0.63.

Take `O=C1COCCN1CC(=O)N(Cc1cccnc1)c1ccc(F)cc1`: the “% Inhibition” value is -1% and the Z score is 0.09.

As to `Cc1cc(O)cc(=O)n1CCn1cnc2ccccc2c1=O`, the “% Inhibition” value is on record as -6% and the Z score was found to be 0.78.

For the compound `Cc1csc(NC(=O)[C@H](C)N(C)Cc2noc(C(C)C)n2)n1`, the “% Inhibition” value is on record as -6% and the Z score is 0.97.

As for `CCc1nc(-c2ccc(C(=O)NCCc3cn[nH]c3)cc2)ccc1C`, the “% Inhibition” value is on record as -16% and the Z score worked out at 2.26.

Regarding `CCn1nc(C2CCOCC2)nc1-c1ccc(CO)cc1`, the “% Inhibition” value is reported as 15% and the Z score is reported as -1.92.

For `c1cc2cc(OCCOC[C@H]3CCCO3)ccc2[nH]1`, the “% Inhibition” value is listed as 3% and the Z score is reported as -0.3.

`CCn1cc(C(=O)Oc2ccc(OC)c(F)c2)c(-c2cnn(C)c2)n1`: the “% Inhibition” value is -18% and the Z score amounted to 2.57.

`Cc1ccc2c(C)cc(N[C@H]3CCN(C)C3)nc2c1C`: the “% Inhibition” value was -1% and the Z score was found to be 0.11.

Consider `COc1ccccc1N1CCN(C(=O)[C@@H]2COCCO2)CC1`, for which the “% Inhibition” value is given as 5% and the Z score is -1.02.

Regarding `CNc1nc(C)cc(C(=O)N(C)c2cnn(C)c2)n1`, the “% Inhibition” value stood at 11% and the Z score was -1.53.

Consider `Cc1cc(C)c(CNC(=O)c2ccccc2NC(=O)c2ccco2)c(=O)[nH]1`, for which the “% Inhibition” value is -22% and the Z score is recorded as 2.97.

Take `O=c1c2cccnc2ccn1Cc1cc(F)cc(C(F)(F)F)c1`: the “% Inhibition” value is on record as -10% and the Z score is recorded as 1.22.

Consider `CCCN1C(=O)C2CCC(=O)N2c2ccc(C(=O)NC(C)c3ccccc3)cc21` (stereo unspecified), for which the “% Inhibition” value is reported as -12% and the Z score is 1.9.

In the case of `Cc1cccnc1N1CC[C@H](N2CCN(C)CC2)[C@H](CCCO)C1`, the “% Inhibition” value is on record as -7% and the Z score is given as 1.29.

For the compound `CN(Cc1cn[nH]c1)C(=O)c1cc[nH]c1C1CCC1`, the “% Inhibition” value was -14% and the Z score came out at 2.75.

On to `CCN(CC)c1ccc(CNC(=O)[C@H](C)c2c(C)noc2C)cc1F`, for which the “% Inhibition” value is -12% and the Z score is given as 1.74.

Turning to `COC[C@H](C)NC(=O)Nc1ccc(Cl)c(OC(F)F)c1`, the “% Inhibition” value is reported as 1% and the Z score was -0.1.

In the case of `Cc1noc(C)c1CC(=O)N1CC(Nc2ncccn2)C1`, the “% Inhibition” value amounted to 9% and the Z score is reported as -1.06.

`CC1CCCCC1OCCN1CCCC(c2ccnn2CCO)C1` (stereo unspecified): the “% Inhibition” value is -8% and the Z score stood at 0.89.

As for `COc1ccccc1CCNC(=O)[C@@H]1CCN(c2ccc3ccccc3c2)C1=O`, the “% Inhibition” value came to 7% and the Z score is listed as -0.89.

Take `Cc1cc(C(=O)NC(C)(C)CN2CCOCC2)ns1`: the “% Inhibition” value is -17% and the Z score is given as 1.84.

For the compound `CC[C@H](C)NS(=O)(=O)c1cc(NC(=O)C2CCC2)ccc1Oc1c(C)c(C(=O)O)nn1C`, the “% Inhibition” value is on record as 8% and the Z score is recorded as -1.

For `Nc1nonc1-n1nncc1-c1cccc2ccccc12`, the “% Inhibition” value is reported as 0% and the Z score was found to be 0.05.
